Measurements from the supplement of paper PMC12217912.
Some of the results follow. The full chains were built here from the parent and the listed change. Inactive controls read about 0.05.

B1: TEV protease; numbered along this chain (parent)
chain: MGESLFKGPRDYNPISSSICHLTNESDGHTTSLYGIGFGPFIITNKHLFRRNNGTLVVQSLHGVFKVKDTTTLQQHLVDGRDMIIIRMPKDFPPFPQKLKFREPQREERICLVTTNFQTKSMSSMVSDTSCTFPSGDGIFWKHWIQTKDGQCGSPLVSTRDGFIVGIHSASNFTNTNNYFTSVPKNFMELLTNQEAQQWVSGWRLNADSVLWGGHKVFMVKPEEPFQPVKEATQL

Variants of: B1
Experiment: raw area under fraction-flipped curve 0-4 h after induction (AUC4h, not background-subtracted), DNA-recorder readout of cleavage of the substrate (dimensionless); higher = more cleavage of the substrate by the protease variant
Settings: temperature: 34 °C; time window: 0-4 h after rhamnose induction
Procedure: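 In vivo DNA recorder in E. coli TOP10(DE3) ΔrhaA at 34 °C. Each TEVp single-site mutant (parent TEVp 0) is paired with a single-site variant of the 7-mer TEVs (canonical ENLYFQ|S). The substrate sits between flexible linkers in a Bxb1-sfGFP-TEVs-SsrA fusion, so cleavage stabilises Bxb1 and speeds flipping of a recombination array, read by NGS. The value is the raw area under the fraction-flipped curve over 0-4 h after rhamnose induction (AUC4h), with ≥20 reads per time point. It is not background-subtracted; inactive controls average about 0.047.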
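Note: Bxb1 expression induced with 0.2% (w/v) L-rhamnose at OD600 near 0.5, cultures sampled hourly, flipped fraction per protease–substrate barcode pair counted by paired-end Illumina sequencing.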

Variant | area with substrate CNLYFQS | area with substrate DNLYFQS | area with substrate FNLYFQS | area with substrate GNLYFQS | area with substrate HNLYFQS | area with substrate INLYFQS | area with substrate KNLYFQS | area with substrate MNLYFQS | area with substrate NNLYFQS | area with substrate PNLYFQS | area with substrate QNLYFQS | area with substrate SNLYFQS | area with substrate TNLYFQS | area with substrate VNLYFQS | area with substrate WNLYFQS | area with substrate YNLYFQS | area with substrate LNLYFQS | area with substrate RNLYFQS
R106T | 0.0642 | 0.0702 | 0.0551 | 0.0755 | 0.0771 | 0.0732 | 0.0587 | 0.0418 | 0.0565 | 0.0721 | 0.0663 | 0.0635 | 0.0632 | 0.062 | 0.0416 | 0.0511 | – | –
S130D | 0.059 | 0.0568 | – | – | 0.0562 | – | 0.108 | 0.0504 | – | 0.0681 | – | 0.0458 | 0.0428 | – | 0.0599 | 0.0576 | – | –
S130I | 0.0656 | 0.161 | – | 0.0847 | 0.0635 | – | – | – | 0.0781 | 0.0598 | 0.0742 | – | 0.0655 | 0.0643 | 0.0621 | 0.0476 | – | –
S130P | 0.0322 | 0.082 | – | 0.0488 | 0.0283 | 0.0543 | – | – | 0.0293 | 0.0486 | 0.0396 | – | 0.0489 | 0.0347 | – | – | – | –
S130W | 0.0137 | 0.0694 | 0.0588 | 0.0572 | 0.0623 | – | 0.0651 | 0.0618 | 0.062 | – | – | 0.0591 | 0.0738 | 0.0591 | 0.0617 | 0.0453 | – | –
G136Y | 0.0607 | 0.0946 | 0.066 | 0.0678 | 0.0673 | – | 0.069 | 0.0447 | 0.065 | – | – | 0.0675 | 0.059 | – | 0.117 | – | 0.0565 | 0.0763
T114K | 0.0801 | 0.0778 | – | – | 0.0738 | – | 0.0772 | – | – | – | – | – | 0.0689 | – | – | – | – | –
T114W | 0.0645 | 0.105 | 0.0528 | 0.0716 | 0.0721 | 0.0639 | 0.078 | – | 0.0728 | 0.0566 | – | – | – | – | 0.0382 | – | 0.0646 | 0.0829
T114A | 0.0804 | 0.0711 | 0.0972 | 0.079 | 0.0505 | – | 0.0603 | 0.0746 | – | 0.0561 | 0.0751 | 0.0618 | 0.064 | 0.079 | 0.0535 | – | 0.0665 | –
V113Q | 0.0637 | 0.0443 | – | – | 0.0649 | 0.0617 | 0.0605 | – | – | 0.0551 | – | 0.063 | 0.0735 | 0.0415 | 0.0548 | 0.0608 | 0.0499 | –
F133C | 0.0878 | 0.0822 | 0.0779 | 0.0778 | 0.0647 | – | 0.0559 | 0.0687 | – | 0.0837 | – | 0.0574 | – | – | 0.0559 | – | – | 0.0657
F133V | 0.047 | 0.0893 | 0.0674 | 0.0499 | 0.0819 | – | – | – | – | 0.0683 | – | 0.0781 | 0.0614 | 0.0601 | 0.0668 | 0.0748 | 0.0621 | 0.0681
M122T | 0.0762 | 0.0768 | – | – | 0.0622 | 0.0745 | 0.0711 | – | 0.0673 | 0.0813 | – | – | 0.0718 | – | 0.0545 | 0.0616 | – | –
M122N | 0.0605 | 0.106 | 0.0811 | – | 0.0649 | 0.112 | 0.06 | 0.0612 | 0.0679 | 0.0755 | – | 0.0605 | 0.0776 | – | – | 0.0548 | 0.0571 | –
M122A | 0.0707 | 0.0825 | – | 0.0765 | 0.0624 | 0.0636 | 0.0706 | – | 0.0493 | 0.0971 | 0.099 | – | 0.0578 | 0.0659 | 0.0798 | 0.0573 | 0.0687 | 0.0691
